Laboratory results: the RNAGym collection of RNA variant scans (doi:10.7554/elife.90254)
The source gives no read counts; variants with many changes may rest on few reads.

B1: LINE1-mini (parent)
chain: GGCAGAGCUCAACACAGCGUGGCAAAGUGGCUGUGGCUAGACUGCC

Variants of: B1
Test: self-cleavage, relative activity (ratio to wild type); higher = more cleavage; in vitro, sequencing; the parent is a self-cleaving ribozyme
G1U G19U C46A gave a self-cleavage of 0.35.
Work on G7A A16G G17C G40U yielded a self-cleavage of 0.09.
Work on C13A U20A G30C G44U yielded a self-cleavage of 0.03.
C10G C18A A26U G27U G29A showed a self-cleavage of 0.02.
G2U G5U G21C C23A G35A C46A gave a self-cleavage of 0.01.
In the case of G27C G35A A41U, the self-cleavage is reported as 0.06.
A12C A14U G33A A41U gave a self-cleavage of 0.01.
C3U G7A G17U C18A A24U showed a self-cleavage of 0.28.
In the case of G7U C13A G27U A39U, the self-cleavage is reported as 0.07.
For A16U G19U U20A G29C G40C, the self-cleavage was 0.2.
With G2U A11C U38C G44U the self-cleavage was 0.
Work on A4G A24U A39C yielded a self-cleavage of 0.05.
Work on G2C C18G G21C U28G G36C G44U yielded a self-cleavage of 0.03.
For A4U U9C C15G C37A, the self-cleavage was 0.05.
For C3A U9A C13G A24G, the self-cleavage was 0.01.
Work on G1U C3A U28G C46G yielded a self-cleavage of 0.53.
For C8G C13U C15U G21A, the self-cleavage was 0.07.
For C10G C18U G21C, the self-cleavage was 0.14.
For C18G G21C G22C A24C G27A G30U C31A G40A U43A, the self-cleavage was 0.02.
Variant C10A G36A C37A A39U has a self-cleavage of 0.01.
For C18U G27C A39U C46U, the self-cleavage was 0.32.
For A14U G30C G44U, the self-cleavage was 0.03.
A12C C15U A25G G29C gave a self-cleavage of 0.08.
Variant A11U A12U U32C has a self-cleavage of 0.07.
A4G G7A C37U showed a self-cleavage of 0.36.
For G2U G17A C37U C46U, the self-cleavage was 0.03.
Work on G1A A16G U32G C37U A41U yielded a self-cleavage of 0.02.
A24U G27A C46A showed a self-cleavage of 0.26.
C3U G7A C15U G27C G29U G40U showed a self-cleavage of 0.17.
Variant A16C A24C U32C U34A C37A has a self-cleavage of 0.01.
With C3A G7A C15U the self-cleavage was 0.24.
Variant U9C G17A A26C G44C has a self-cleavage of 0.01.
For A4G G5C G19U U34C, the self-cleavage was 0.03.
C8A U20C C46G gave a self-cleavage of 0.18.
Work on A4C G19A U38G A41U U43A yielded a self-cleavage of 0.01.
Work on U32C U38C A41U G44C yielded a self-cleavage of 0.
In the case of G7C C13U A41U, the self-cleavage is reported as 0.52.
In the case of C10U U32G U38A, the self-cleavage is reported as 0.04.
With C15A U20A U28G G33U U34G the self-cleavage was 0.
For C10A C13U G21C G27A, the self-cleavage was 0.01.
For G5A U20C G35A G40C, the self-cleavage was 0.09.
Variant G2C C10A A14U A25G G40U has a self-cleavage of 0.01.
Work on A16U G17U U28C G40C yielded a self-cleavage of 0.02.
G7U C18A G40U gave a self-cleavage of 0.03.
For C18A A24G G30U C45G, the self-cleavage was 0.05.
Variant U20A G35C U38C has a self-cleavage of 0.01.
In the case of G1C G5C A16G G17U U32A U38A C46A, the self-cleavage is reported as 0.01.
Variant A12U G19A G21U A41C has a self-cleavage of 0.01.
G1U A24U U34G gave a self-cleavage of 0.14.
Work on C23A C31U U38A G40C yielded a self-cleavage of 0.1.
With G22A G27U U28G the self-cleavage was 0.24.
C13U A14U A16C G30C gave a self-cleavage of 0.13.
Work on C10G C13U A14U G27U G30C yielded a self-cleavage of 0.02.
In the case of G22C G35C C37A C45U, the self-cleavage is reported as 0.05.
With G2U C23U C31A G40U the self-cleavage was 0.01.
Work on A16G G27U C31A G36U G44A yielded a self-cleavage of 0.
Variant U9C A11C U20A C23G has a self-cleavage of 0.02.
A12G G22A G33C C42G C46A showed a self-cleavage of 0.
For C10A A12C G21C G22C, the self-cleavage was 0.01.
For A16U G36U C45G, the self-cleavage was 0.05.
A12U A24G C42G showed a self-cleavage of 0.02.
Work on G2C G7C G29A C37G U38A yielded a self-cleavage of 0.09.
In the case of G7U A11U U20A G33A G35C, the self-cleavage is reported as 0.03.
Variant G2A C10G C13G A41U has a self-cleavage of 0.02.
Variant A11G C15U G19U G44A has a self-cleavage of 0.03.
Work on C10U A14U U38A yielded a self-cleavage of 0.03.
In the case of A11U A16U G27A U28A, the self-cleavage is reported as 0.01.
For G5U G27A A41C C42A, the self-cleavage was 0.
Variant A4C C8U A16C G17C has a self-cleavage of 0.11.
Variant G30A G33U A41G has a self-cleavage of 0.04.
In the case of C8G A16G C37U, the self-cleavage is reported as 0.11.
C3U G5A C31G showed a self-cleavage of 0.1.
Work on U20G U28G C31U U38G yielded a self-cleavage of 0.01.
For A4C A16C G30C, the self-cleavage was 0.11.
Variant C3U C10U A11U A24U has a self-cleavage of 0.05.
Variant C8A A11C G29A G44U has a self-cleavage of 0.02.
Variant C13A C15U G40C has a self-cleavage of 0.18.
Work on G27U G44C C46U yielded a self-cleavage of 0.03.
Variant C3U C13A A16U G21A C37U has a self-cleavage of 0.77.
With U20C G21C A24C U28C G36A the self-cleavage was 0.08.
U20C U43G C45G gave a self-cleavage of 0.
In the case of G2A G5C A6C A16G C23G, the self-cleavage is reported as 0.66.
A16U C23G A26U U32G C37U C42A showed a self-cleavage of 0.14.
With G1U C3A A12U the self-cleavage was 0.14.
Work on G1C C18A C31G yielded a self-cleavage of 0.02.
C15A G33U U34A showed a self-cleavage of 0.07.
A6G C8A C23G gave a self-cleavage of 0.35.
In the case of C13G U20A A26G U32A C42A, the self-cleavage is reported as 0.02.
With A14U G17A A24C the self-cleavage was 0.07.
With G2U U9G C31A the self-cleavage was 0.37.
For C3U A4C G7A G30A, the self-cleavage was 0.96.
Work on C18U G19A G30U G33A U34A G36A G40A yielded a self-cleavage of 0.02.
For A6C G19A U34C A39C, the self-cleavage was 0.07.
In the case of C15U C18A U20A A25G G30C, the self-cleavage is reported as 0.17.
In the case of A12U C31A G36U, the self-cleavage is reported as 0.07.
A4U U38A G44C showed a self-cleavage of 0.09.
G19A A26U G30U G35A C37A showed a self-cleavage of 0.03.
G1U A26U U32C C45U gave a self-cleavage of 0.03.
Variant C3A A16C G27U C37U G40U has a self-cleavage of 0.12.
Variant C3G A6C G22A G36C has a self-cleavage of 0.29.
For G7U C8U A12U C31A, the self-cleavage was 0.1.
Work on G1U C13U G17U C23G G44A yielded a self-cleavage of 0.02.
Variant G2U A24C U28G C42A C46G has a self-cleavage of 0.
Variant G27A U34A G35A has a self-cleavage of 0.12.
C3U G21C U34G showed a self-cleavage of 0.04.
Variant G17A G30A C46U has a self-cleavage of 0.39.
For C3U C13U U38C G40C, the self-cleavage was 0.04.
C13G A16G U38G showed a self-cleavage of 0.
In the case of G5A A11C A16G A25G, the self-cleavage is reported as 0.02.
Variant C3G G19U G44C has a self-cleavage of 1.32.
A6G A11U A24C U43A gave a self-cleavage of 0.
With A12C A16G C18U G19U G27A G29A G35A the self-cleavage was 0.06.
For A14U U20C U28A A39U C42A, the self-cleavage was 0.05.
Work on G22U A24G C46G yielded a self-cleavage of 0.49.
Variant G5C C18U C31U U38A has a self-cleavage of 0.04.
In the case of G17U A26C U38C A39C U43C, the self-cleavage is reported as 0.
In the case of G2A U20A G36C, the self-cleavage is reported as 0.04.
In the case of C3G C15A U20A G30U, the self-cleavage is reported as 0.08.
For U20A G22U A26U, the self-cleavage was 0.55.
G7U A14G C23G C31A U34A U38C U43C gave a self-cleavage of 0.
With A11U A24C U28C G29A the self-cleavage was 0.08.
In the case of G21U G29U G40U, the self-cleavage is reported as 0.04.
For U9A G22C C37A U38G, the self-cleavage was 0.
A14U G17U G40A showed a self-cleavage of 0.
A4U C10A G33U C45A showed a self-cleavage of 0.02.
With U20A G29C G36U the self-cleavage was 0.02.
C8A A16G U38A gave a self-cleavage of 0.13.
Variant G19C C42U G44A has a self-cleavage of 0.01.
Work on G7U G30U G33A U34A yielded a self-cleavage of 0.43.
Work on C10G C13U U20A yielded a self-cleavage of 0.
Work on G2C A4G G5A A6G C8G A14G U20G yielded a self-cleavage of 0.02.
In the case of C13G A16G G44U, the self-cleavage is reported as 0.04.
Variant U9C C18G G33U G44U has a self-cleavage of 0.11.
With G1A G5C C8A G33C the self-cleavage was 0.08.
Work on C15A G22C U28A yielded a self-cleavage of 0.01.
In the case of G1U C3G A26C G36U, the self-cleavage is reported as 0.34.
With C3G C37A A39G the self-cleavage was 0.41.
Work on C8G A26C C37U yielded a self-cleavage of 0.03.
Work on G21C A24G U28G G36A U43C yielded a self-cleavage of 0.04.
For A41G U43C G44A, the self-cleavage was 0.09.
G2U A12G C13A C18G G19U G22A showed a self-cleavage of 0.03.
With G2A A24U A41U the self-cleavage was 2.01.
Variant A11G U20A C46A has a self-cleavage of 0.07.
For A25U C37U C45A, the self-cleavage was 0.05.
Variant A11C A14U G36A C37U has a self-cleavage of 0.03.
Variant G22C U32A G35U G36A C45U has a self-cleavage of 0.02.
Work on U9A U28G G36U G44A yielded a self-cleavage of 0.13.
Variant C3A U9A G36C has a self-cleavage of 0.11.
With C3A G22C A39C G44U the self-cleavage was 0.04.
With A14U C31A G33A the self-cleavage was 0.01.
Work on C8U C18A C31A A41U yielded a self-cleavage of 0.08.
A12G A25C C46G showed a self-cleavage of 0.03.
G29A U34A C37G showed a self-cleavage of 0.04.
In the case of G7U G19A G29A, the self-cleavage is reported as 0.05.
For G2C C10A C13A C18U A39C, the self-cleavage was 0.03.
In the case of A16G G22U G29A C42A C46A, the self-cleavage is reported as 0.01.
U9G C10G G17A G19A G30U gave a self-cleavage of 0.01.
In the case of G2A G27A C42G G44U, the self-cleavage is reported as 0.07.
G5A A12C G27C gave a self-cleavage of 0.01.
Work on C13U G19A G35C yielded a self-cleavage of 0.11.
In the case of A24C G27U A41G U43A G44C, the self-cleavage is reported as 0.05.
With A11C C15G A25C G30A C45U C46A the self-cleavage was 0.
In the case of G5U G36U C46A, the self-cleavage is reported as 0.07.
Variant C10A C13A U34A C37A has a self-cleavage of 0.01.
C13G G19U C46U gave a self-cleavage of 0.32.
Work on G5A U9G U32G U43C yielded a self-cleavage of 0.
Variant G1A C8A G40U has a self-cleavage of 0.14.
